Assay results as given in article PMC9911399.
The list shows a part of the results.

Molecular target: T1, RBFOX1 RRM (Homo sapiens) (UniProt Q9NWB1)
T1 sequence: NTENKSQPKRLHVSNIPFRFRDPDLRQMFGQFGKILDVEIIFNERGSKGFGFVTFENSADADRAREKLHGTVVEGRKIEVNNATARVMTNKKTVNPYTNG
Test: EMSA
Settings: HiTS-Eq, 1 nM pool, 10 min; buffer printed only for the single-RNA assays: 10 mM Tris pH 7.5, 150 mM NaCl, 3.4 mM EDTA, 0.001% NP-40, 30 C

Sequence | binding signal (KA relative to UGCAUGU)
GGGAGACCGGAAUUCAGAUUGUCCCCCCAUCUUAAAUCCCGUCGUAGCCACCA / CAATCTGAATTCCGGTCTCCC / TGGTGGCTACGACGGGATT | 0.00562
GGGAGACCGGAAUUCAGAUUGUCCUCCCAGAUUAAAUCCCGUCGUAGCCACCA / CAATCTGAATTCCGGTCTCCC / TGGTGGCTACGACGGGATT | 0.00658
GGGAGACCGGAAUUCAGAUUGUCCCUCCCUCUUAAAUCCCGUCGUAGCCACCA / CAATCTGAATTCCGGTCTCCC / TGGTGGCTACGACGGGATT | 0.000346
GGGAGACCGGAAUUCAGAUUGUCCGGUGUCCUUAAAUCCCGUCGUAGCCACCA / CAATCTGAATTCCGGTCTCCC / TGGTGGCTACGACGGGATT | 0.00504
GGGAGACCGGAAUUCAGAUUGUCCGGAUCCCUUAAAUCCCGUCGUAGCCACCA / CAATCTGAATTCCGGTCTCCC / TGGTGGCTACGACGGGATT | 0.00477
GGGAGACCGGAAUUCAGAUUGUCCUCCCUCAUUAAAUCCCGUCGUAGCCACCA / CAATCTGAATTCCGGTCTCCC / TGGTGGCTACGACGGGATT | 0.00648
GGGAGACCGGAAUUCAGAUUGUCCCCCUCCGUUAAAUCCCGUCGUAGCCACCA / CAATCTGAATTCCGGTCTCCC / TGGTGGCTACGACGGGATT | 0.00818
GGGAGACCGGAAUUCAGAUUGUCCCCCAUCCUUAAAUCCCGUCGUAGCCACCA / CAATCTGAATTCCGGTCTCCC / TGGTGGCTACGACGGGATT | 0.0092
GGGAGACCGGAAUUCAGAUUGUCCCCCGGUCUUAAAUCCCGUCGUAGCCACCA / CAATCTGAATTCCGGTCTCCC / TGGTGGCTACGACGGGATT | 0.0435
GGGAGACCGGAAUUCAGAUUGUCCCCUCCCAUUAAAUCCCGUCGUAGCCACCA / CAATCTGAATTCCGGTCTCCC / TGGTGGCTACGACGGGATT | 0.000806
GGGAGACCGGAAUUCAGAUUGUCCCCGGUCAUUAAAUCCCGUCGUAGCCACCA / CAATCTGAATTCCGGTCTCCC / TGGTGGCTACGACGGGATT | 0.00923
GGGAGACCGGAAUUCAGAUUGUCCCCCCCUCUUAAAUCCCGUCGUAGCCACCA / CAATCTGAATTCCGGTCTCCC / TGGTGGCTACGACGGGATT | 0.00857
GGGAGACCGGAAUUCAGAUUGUCCGGUCCAAUUAAAUCCCGUCGUAGCCACCA / CAATCTGAATTCCGGTCTCCC / TGGTGGCTACGACGGGATT | 0.00374
GGGAGACCGGAAUUCAGAUUGUCCCACUCCCUUAAAUCCCGUCGUAGCCACCA / CAATCTGAATTCCGGTCTCCC / TGGTGGCTACGACGGGATT | 0.00424
GGGAGACCGGAAUUCAGAUUGUCCAUCUCCCUUAAAUCCCGUCGUAGCCACCA / CAATCTGAATTCCGGTCTCCC / TGGTGGCTACGACGGGATT | 0.00326
GGGAGACCGGAAUUCAGAUUGUCCAGUCUCCUUAAAUCCCGUCGUAGCCACCA / CAATCTGAATTCCGGTCTCCC / TGGTGGCTACGACGGGATT | 0.000385
GGGAGACCGGAAUUCAGAUUGUCCCCCCGACUUAAAUCCCGUCGUAGCCACCA / CAATCTGAATTCCGGTCTCCC / TGGTGGCTACGACGGGATT | 0.0111
GGGAGACCGGAAUUCAGAUUGUCCCCCCCGCUUAAAUCCCGUCGUAGCCACCA / CAATCTGAATTCCGGTCTCCC / TGGTGGCTACGACGGGATT | 0.000216
GGGAGACCGGAAUUCAGAUUGUCCUACUCCCUUAAAUCCCGUCGUAGCCACCA / CAATCTGAATTCCGGTCTCCC / TGGTGGCTACGACGGGATT | 0.00122
GGGAGACCGGAAUUCAGAUUGUCCCCCAUAAUUAAAUCCCGUCGUAGCCACCA / CAATCTGAATTCCGGTCTCCC / TGGTGGCTACGACGGGATT | 0.00665
GGGAGACCGGAAUUCAGAUUGUCCCCACCACUUAAAUCCCGUCGUAGCCACCA / CAATCTGAATTCCGGTCTCCC / TGGTGGCTACGACGGGATT | 0.0209
GGGAGACCGGAAUUCAGAUUGUCCCCCCUAAUUAAAUCCCGUCGUAGCCACCA / CAATCTGAATTCCGGTCTCCC / TGGTGGCTACGACGGGATT | 0.000185
GGGAGACCGGAAUUCAGAUUGUCCCCCAACAUUAAAUCCCGUCGUAGCCACCA / CAATCTGAATTCCGGTCTCCC / TGGTGGCTACGACGGGATT | 0.00306
GGGAGACCGGAAUUCAGAUUGUCCUCUCCCUUUAAAUCCCGUCGUAGCCACCA / CAATCTGAATTCCGGTCTCCC / TGGTGGCTACGACGGGATT | 0.00629
GGGAGACCGGAAUUCAGAUUGUCCCUCCCCCUUAAAUCCCGUCGUAGCCACCA / CAATCTGAATTCCGGTCTCCC / TGGTGGCTACGACGGGATT | 0.00211
GGGAGACCGGAAUUCAGAUUGUCCUCCCCAAUUAAAUCCCGUCGUAGCCACCA / CAATCTGAATTCCGGTCTCCC / TGGTGGCTACGACGGGATT | 0.00319
GGGAGACCGGAAUUCAGAUUGUCCUUCUCCCUUAAAUCCCGUCGUAGCCACCA / CAATCTGAATTCCGGTCTCCC / TGGTGGCTACGACGGGATT | 0.015
GGGAGACCGGAAUUCAGAUUGUCCAUUCCGGUUAAAUCCCGUCGUAGCCACCA / CAATCTGAATTCCGGTCTCCC / TGGTGGCTACGACGGGATT | 0.0034
GGGAGACCGGAAUUCAGAUUGUCCCCCAUUCUUAAAUCCCGUCGUAGCCACCA / CAATCTGAATTCCGGTCTCCC / TGGTGGCTACGACGGGATT | 0.00456
